Results reported in patent publication US7816326B2, “Sulfur compounds as inhibitors of hepatitis C virus NS3 serine protease” (Schering Corporation, priority 2004, dated 2010).

Molecular target: Recombinant heterodimeric HCV NS3/NS4A protease (strain 1a) (Hepatitis C virus genotype 1a, UniProt P27958)
Test: Spectrophotometric assay for HCV protease inhibitory activity
Format: biochemical
Conditions: HCV serine protease inhibitory activity ranges; read-out: Ki* Range

Row | Structure (SMILES) | Ki
1 | CCCC[C@H](NC(=O)[C@@H]1[C@@H]2[C@H](CN1C(=O)[C@@H](NC(=O)NC1(CS(=O)(=O)N(C)[C@H](C)C3CC3)CCCCC1)C(C)(C)C)C2(C)C)C(=O)C(=O)NC1CC1 [compound 1294] | < 75 nM
2 | C[C@H](C1CC1)N(C)S(=O)(=O)CC1(NC(=O)N[C@H](C(=O)N2C[C@H]3[C@@H]([C@H]2C(=O)N[C@@H](CCC2CC2)C(=O)C(=O)NC2CC2)C3(C)C)C(C)(C)C)CCCCC1 [compound 1295] | < 75 nM
3 | CCC[C@H](NC(=O)[C@@H]1[C@@H]2[C@H](CN1C(=O)[C@@H](NC(=O)NC1(CS(=O)(=O)N(C)[C@H](C)C3CC3)CCCCC1)C(C)(C)C)C2(C)C)C(=O)C(=O)NC1CC1 [compound 1296] | < 75 nM
4 | C[C@H](C1CC1)N(C)S(=O)(=O)CC1(NC(=O)N[C@H](C(=O)N2C[C@H]3[C@@H]([C@H]2C(=O)N[C@@H](CC2CC2)C(=O)C(=O)NC2CC2)C3(C)C)C(C)(C)C)CCCCC1 [compound 1297] | < 75 nM
5 | CCCC[C@H](NC(=O)[C@@H]1[C@@H]2[C@H](CN1C(=O)[C@@H](NC(=O)NC1(CS(=O)(=O)N(C)C(C)(C)C3CC3)CCCCC1)C(C)(C)C)C2(C)C)C(=O)C(=O)NC1CC1 [compound 1298] | < 75 nM
6 | CN(C(C)(C)C1CC1)S(=O)(=O)CC1(NC(=O)N[C@H](C(=O)N2C[C@H]3[C@@H]([C@H]2C(=O)N[C@@H](CCC2CC2)C(=O)C(=O)NC2CC2)C3(C)C)C(C)(C)C)CCCCC1 [compound 1299] | < 75 nM
7 | CCCC[C@H](NC(=O)[C@@H]1[C@@H]2[C@H](CN1C(=O)[C@@H](NC(=O)NC1(CS(=O)(=O)N(CC)C(C)C)CCCCC1)C(C)(C)C)C2(C)C)C(=O)C(=O)NC1CC1 [compound 1300] | < 75 nM
8 | CCN(C(C)C)S(=O)(=O)CC1(NC(=O)N[C@H](C(=O)N2C[C@H]3[C@@H]([C@H]2C(=O)N[C@@H](CCC2CC2)C(=O)C(=O)NC2CC2)C3(C)C)C(C)(C)C)CCCCC1 [compound 1301] | < 75 nM
9 | CCC[C@H](NC(=O)[C@@H]1[C@@H]2[C@H](CN1C(=O)[C@@H](NC(=O)NC1(CS(=O)(=O)N(CC)C(C)C)CCCCC1)C(C)(C)C)C2(C)C)C(=O)C(=O)NC1CC1 [compound 1302] | < 75 nM
10 | CCCC[C@H](NC(=O)[C@@H]1[C@@H]2[C@H](CN1C(=O)[C@@H](NC(=O)NC1(CS(=O)(=O)N(CC)C(C)C)CCCCC1)C1(C)CCCCC1)C2(C)C)C(=O)C(=O)NC1CC1 [compound 1303] | < 75 nM
11 | CCN(C(C)C)S(=O)(=O)CC1(NC(=O)N[C@H](C(=O)N2C[C@H]3[C@@H]([C@H]2C(=O)N[C@@H](CCC2CC2)C(=O)C(=O)NC2CC2)C3(C)C)C2(C)CCCCC2)CCCCC1 [compound 1304] | < 75 nM
12 | CCC[C@H](NC(=O)[C@@H]1[C@@H]2[C@H](CN1C(=O)[C@@H](NC(=O)NC1(CS(=O)(=O)N(CC)C(C)C)CCCCC1)C1(C)CCCCC1)C2(C)C)C(=O)C(=O)NC1CC1 [compound 1305] | < 75 nM
13 | CCN(C(C)C)S(=O)(=O)CC1(NC(=O)N[C@H](C(=O)N2C[C@H]3[C@@H]([C@H]2C(=O)N[C@@H](CC2CC2)C(=O)C(=O)NC2CC2)C3(C)C)C2(C)CCCCC2)CCCCC1 [compound 1306] | < 75 nM
14 | CCC[C@H](NC(=O)[C@@H]1[C@@H]2[C@H](CN1C(=O)[C@@H](NC(=O)NC1(CS(=O)(=O)N(C)C3CC3)CCCCC1)C1(C)CCCCC1)C2(C)C)C(=O)C(=O)NC1CC1 [compound 1307] | < 75 nM
15 | CN(C1CC1)S(=O)(=O)CC1(NC(=O)N[C@H](C(=O)N2C[C@H]3[C@@H]([C@H]2C(=O)N[C@@H](CC2CC2)C(=O)C(=O)NC2CC2)C3(C)C)C2(C)CCCCC2)CCCCC1 [compound 1308] | < 75 nM
16 | CCC[C@H](NC(=O)[C@@H]1[C@@H]2[C@H](CN1C(=O)[C@@H](NC(=O)NC1(CS(=O)(=O)N(C)C(C)(C)C3CC3)CCCCC1)C(C)(C)C)C2(C)C)C(=O)C(=O)NC1CC1 [compound 1309] | < 75 nM
17 | CN(C(C)(C)C1CC1)S(=O)(=O)CC1(NC(=O)N[C@H](C(=O)N2C[C@H]3[C@@H]([C@H]2C(=O)N[C@@H](CC2CC2)C(=O)C(=O)NC2CC2)C3(C)C)C(C)(C)C)CCCCC1 [compound 1310] | < 75 nM
18 | CCCC[C@H](NC(=O)[C@@H]1[C@@H]2[C@H](CN1C(=O)[C@@H](NC(=O)NC1(CS(=O)(=O)N(C)CC(F)(F)F)CCCCC1)C(C)(C)C)C2(C)C)C(=O)C(=O)NC1CC1 [compound 1311] | < 75 nM
19 | CN(CC(F)(F)F)S(=O)(=O)CC1(NC(=O)N[C@H](C(=O)N2C[C@H]3[C@@H]([C@H]2C(=O)N[C@@H](CCC2CC2)C(=O)C(=O)NC2CC2)C3(C)C)C(C)(C)C)CCCCC1 [compound 1312] | < 75 nM
20 | CCCC[C@H](NC(=O)[C@@H]1[C@@H]2[C@H](CN1C(=O)[C@@H](NC(=O)NC1(CS(=O)(=O)N(CC)C(C)(C)C)CCCCC1)C(C)(C)C)C2(C)C)C(=O)C(=O)NC1CC1 [compound 1313] | < 75 nM
21 | CCN(C(C)(C)C)S(=O)(=O)CC1(NC(=O)N[C@H](C(=O)N2C[C@H]3[C@@H]([C@H]2C(=O)N[C@@H](CCC2CC2)C(=O)C(=O)NC2CC2)C3(C)C)C(C)(C)C)CCCCC1 [compound 1314] | < 75 nM
22 | CCN(C(C)(C)C)S(=O)(=O)CC1(NC(=O)N[C@H](C(=O)N2C[C@H]3[C@@H]([C@H]2C(=O)N[C@@H](CC2CC2)C(=O)C(=O)NC2CC2)C3(C)C)C(C)(C)C)CCCCC1 [compound 1316] | < 75 nM

Row | Structure (SMILES) | Ki
23 | CN(CC(F)(F)F)S(=O)(=O)CC1(NC(=O)N[C@H](C(=O)N2C[C@H]3[C@@H]([C@H]2C(=O)N[C@@H](CC2CC2)C(=O)C(=O)NC2CC2)C3(C)C)C(C)(C)C)CCCCC1 [compound 1318] | < 75 nM
24 | CCCC[C@H](NC(=O)[C@@H]1[C@@H]2[C@H](CN1C(=O)[C@@H](NC(=O)NC1(CS(=O)(=O)N(C)CC(F)(F)F)CCCCC1)C1(C)CCCCC1)C2(C)C)C(=O)C(=O)NC1CC1 [compound 1319] | < 75 nM
25 | CN(CC(F)(F)F)S(=O)(=O)CC1(NC(=O)N[C@H](C(=O)N2C[C@H]3[C@@H]([C@H]2C(=O)N[C@@H](CCC2CC2)C(=O)C(=O)NC2CC2)C3(C)C)C2(C)CCCCC2)CCCCC1 [compound 1320] | < 75 nM
26 | CN(C1CC1)S(=O)(=O)CC1(NC(=O)N[C@H](C(=O)N2C[C@H]3[C@@H]([C@H]2C(=O)N[C@@H](CC2CC2)C(=O)C(=O)NC2CC2)C3(C)C)C(C)(C)C)CCCCC1 [compound 1321] | < 75 nM
27 | CCC[C@H](NC(=O)[C@@H]1[C@@H]2[C@H](CN1C(=O)[C@@H](NC(=O)NC1(CS(=O)(=O)N(C)CC(F)(F)F)CCCCC1)C1(C)CCCCC1)C2(C)C)C(=O)C(=O)NC1CC1 [compound 1322] | < 75 nM
28 | CN(CC(F)(F)F)S(=O)(=O)CC1(NC(=O)N[C@H](C(=O)N2C[C@H]3[C@@H]([C@H]2C(=O)N[C@@H](CC2CC2)C(=O)C(=O)NC2CC2)C3(C)C)C2(C)CCCCC2)CCCCC1 [compound 1323] | < 75 nM
29 | CCN(C(C)(C)C)S(=O)(=O)CC1(NC(=O)N[C@H](C(=O)N2C[C@H]3[C@@H]([C@H]2C(=O)N[C@@H](CCC2CC2)C(=O)C(=O)NC2CC2)C3(C)C)C2(C)CCCCC2)CCCCC1 [compound 1324] | < 75 nM
30 | CCC[C@H](NC(=O)[C@@H]1[C@@H]2[C@H](CN1C(=O)[C@@H](NC(=O)NC1(CS(=O)(=O)N(CC)C(C)(C)C)CCCCC1)C1(C)CCCCC1)C2(C)C)C(=O)C(=O)NC1CC1 [compound 1325] | < 75 nM
31 | CCN(C(C)C)S(=O)(=O)CC1(NC(=O)N[C@H](C(=O)N2C[C@H]3[C@@H]([C@H]2C(=O)N[C@@H](CC2CC2)C(=O)C(=O)NC2CC2)C3(C)C)C(C)(C)C)CCCCC1 [compound 1326] | < 75 nM
32 | CCCC[C@H](NC(=O)[C@@H]1[C@@H]2[C@H](CN1C(=O)[C@@H](NC(=O)NC1(CS(=O)(=O)N(CC)C(C)(C)C)CCCCC1)C1(C)CCCCC1)C2(C)C)C(=O)C(=O)NC1CC1 [compound 1327] | < 75 nM
33 | CC(C)N(C)S(=O)(=O)CC1(NC(=O)N[C@H](C(=O)N2C[C@H]3[C@@H]([C@H]2C(=O)N[C@@H](CC2CC2)C(=O)C(=O)NC2CC2)C3(C)C)C(C)(C)C)CCCCC1 [compound 1328] | < 75 nM
34 | CCCC[C@H](NC(=O)[C@@H]1[C@@H]2[C@H](CN1C(=O)[C@@H](NC(=O)NC1(CS(=O)(=O)N(C(C)C)C3CC3)CCCCC1)C(C)(C)C)C2(C)C)C(=O)C(=O)NC1CC1 [compound 1329] | < 75 nM
35 | CC(C)N(C1CC1)S(=O)(=O)CC1(NC(=O)N[C@H](C(=O)N2C[C@H]3[C@@H]([C@H]2C(=O)N[C@@H](CCC2CC2)C(=O)C(=O)NC2CC2)C3(C)C)C(C)(C)C)CCCCC1 [compound 1330] | < 75 nM
36 | CCC[C@H](NC(=O)[C@@H]1[C@@H]2[C@H](CN1C(=O)[C@@H](NC(=O)NC1(CS(=O)(=O)N(C(C)C)C3CC3)CCCCC1)C(C)(C)C)C2(C)C)C(=O)C(=O)NC1CC1 [compound 1331] | < 75 nM
37 | CC(C)N(C1CC1)S(=O)(=O)CC1(NC(=O)N[C@H](C(=O)N2C[C@H]3[C@@H]([C@H]2C(=O)N[C@@H](CC2CC2)C(=O)C(=O)NC2CC2)C3(C)C)C(C)(C)C)CCCCC1 [compound 1332] | < 75 nM
38 | CCCC[C@H](NC(=O)[C@@H]1[C@@H]2[C@H](CN1C(=O)[C@@H](NC(=O)NC1(CS(=O)(=O)N(CC)CC)CCCCC1)C1CCCCC1)C2(C)C)C(=O)C(=O)NC1CC1 [compound 1333] | < 75 nM
39 | CCN(CC)S(=O)(=O)CC1(NC(=O)N[C@H](C(=O)N2C[C@H]3[C@@H]([C@H]2C(=O)N[C@@H](CCC2CC2)C(=O)C(=O)NC2CC2)C3(C)C)C2CCCCC2)CCCCC1 [compound 1334] | < 75 nM
40 | CCC[C@H](NC(=O)[C@@H]1[C@@H]2[C@H](CN1C(=O)[C@@H](NC(=O)NC1(CS(=O)(=O)N(CC)CC)CCCCC1)C1CCCCC1)C2(C)C)C(=O)C(=O)NC1CC1 [compound 1335] | < 75 nM
41 | CCN(CC)S(=O)(=O)CC1(NC(=O)N[C@H](C(=O)N2C[C@H]3[C@@H]([C@H]2C(=O)N[C@@H](CC2CC2)C(=O)C(=O)NC2CC2)C3(C)C)C2CCCCC2)CCCCC1 [compound 1336] | < 75 nM
42 | CCN(C(C)(C)C)S(=O)(=O)CC1(NC(=O)N[C@H](C(=O)N2C[C@H]3[C@@H]([C@H]2C(=O)N[C@@H](CC2CC2)C(=O)C(=O)NC2CC2)C3(C)C)C2(C)CCCCC2)CCCCC1 [compound 1337] | < 75 nM
43 | CC(C)N(C)S(=O)(=O)CC1(NC(=O)N[C@H](C(=O)N2C[C@H]3[C@@H]([C@H]2C(=O)N[C@@H](CC2CC2)C(=O)C(=O)NC2CC2)C3(C)C)C2(C)CCCCC2)CCCCC1 [compound 1338] | < 75 nM
